Data: the supplement of paper PMC8674133
Numbering of substitutions follows the chain as printed. Recombinant human monoclonal antibodies (heavy:light variable regions). ELISA EC50 on the named antigen, from 10 µg/ml down; IC50 / IC90 against spike pseudovirus on 293T-ACE2 cells, 48 h; lower = stronger. Calls: IC50 above 1,000 ng/ml = non-neutralizing; EC50 above 2,000 ng/ml = non-binder. The source prints 1000 for neutralization that was not reached; it is given as >1000 ng/ml. A few antibodies were first reported in earlier work of the same group.

B1: C1429 (protein)
chain 1: EVQLVESGGGLVQPGGSLRLSCTASGFTLSSYSMHWVRQAPGKGLEWISFISSSATTIYYADSVKGRFTISKDNDNDSLYLRMNSLRDEDTAVYYCARERRPYYDFWSGPDSGFDPWGQGTLVTVSS
chain 2: QSVLTQPPSASGTPGQRVTISCSGSSSNIGSNTVNWYQQLPGTAPKLLIYSNNQRPSGVPDRFSGSKSGTSASLAISGLQSEDEADYYCSAWDASLNGWLFGGGTKLTVL
B2: C1430 (protein)
chain 1: QVQLVESGGGVVQPGRSLRLSCAASGFTFSNYGMHWVRQAPGKGLEWVALIWYDGSYKYYADSVKGRFTISRDNSQNTLYLQLNSLRDEDTAVYYCAREGDCSGGNCWKGIWYFDLWGRGTLVTVSS
chain 2: QSALTQPRSVSGSPGQSVTISCTGTSSDVGGYNFVSWYQQHPGKAPKLMIYDVIKRPSGVPDRFSGSKSGNTASLTISGLQADDEADYYCCSYAGSYTYVFGTGTKVTVL
B3: C1431 (protein)
chain 1: QVQLQESGPGLVKPSQTLSLICTVSGGSISSGDYSWSWIRQHPGKGLDWIGYISYSGSTYYKPSLKSRVNISLDTSKNQFSLRLRSVTAADTAVYYCARLKRYLEWSKETYEYYFDYWGQGTLVTVSS
chain 2: SYELTQPPSVSVSPGQTASITCSGNKLGEKYVCWYHQKPGQSPVLVMYQDDRRPSGIPERFSGSNSGNTATLTISGAQAMDEADYYCQAWDSTTAVFGGGTTLTVL
B4: C1432 (protein)
chain 1: QVQLQESGPGLVKPSQTLSLSCNVSGDSISSSGYQWNWIRQHPGKGLEWIAYIYYSGSAYYNPSLKSRVTMSVDTSKNRFSLKLSSVTAADTAVYYCARRGVDSILIGASVIDYYYYGMDVWGQGTTVTVSS
chain 2: QSALTQPASVSGSPGQSITISCTGTSSDVGGYTYVSWYQQHPGKAPKVIIYDVSNRPSGVSNRFSGSKSGNTASLTISGLQAEDEADYYCSSYTSSSTYVFGTGTKVTVL
B5: C1433 (protein)
chain 1: QVQLVQSGAEVKKPGASVKVSCKSSGYSFTTYGISWVRQAPGQGLEWMGWISTYNGNTNYAQKVQGRVTMTRDTSTSTATMELRSLRSDDTAVYYCARDRLAAAIDYFDYWGQGTLVTVSS
chain 2: SYELTQPPSVSVAPGQTARITCGGNDIGSKSVHWYQQKPGQAPVLVVYDDTYRPSGIPERFTGSNSGNTATLTISRVAAGDEADYYCQVWDGTSDHPGVVFGGGTKLTVL
B6: C1434 (protein)
chain 1: QVQLVESGGSVVQPGRSLRLSCAASGFTFRHYVMHWVRQAPGKGLEWVAVILYDGSDKYYADSVKGRFTISRDNSKNTLYLQMNSLRAEDTAVYYCAKGAEPYCSAGNCYSNYFDYWGQGTLVTVSS
chain 2: IQLTQSPSSLSASVGDRVTITCRASQAISSALAWYQQKSGKPPKLLIYHASSLQSGVPSRFSGSGSGTDFTLTISSLQAEDFATYYCQQFNSYSTFGPGTKVDIK
B7: C2479 (protein)
chain 1: VQLVESGGGVVQPGRSLRLSCAASGFTFSSYGMHWVRQAPGKGLEWVAVISDDGSFKYYADSVKGRFTISRDNSKKTLDLQMTRLRAEDTAVYYCARDWGSTVTLFDSWGQGSLVTVSS
chain 2: DIQLTQSPSSLSASVGDRVNITCRASQSIITYLNWYQQKPGKAPKLLIYGASSLQSGVPSRFSGSGSGTDFTLTISSLQPADFATYYCQQSYNTPPWTFGQGTKVEIK
B8: C2478 (protein)
chain 1: EVQLVESGGGLVQPGRSLRLSCSVSGFTFDEYAMHWVRQAPGKGLEWVSGISWNGGTIGYADSVKGRFTISRDNAKNSLYLQMNSLRAADTALYYCAKDIYPLDYGDAFFFDSWGQGTLVTVSS
chain 2: EIVLTQSPGTLSLSPGERVTLSCRASQRVSSSYLAWYQQKPGQAPRLLIYGASSRAIGIPDRFSGGGSGTDFTLTISRLEPEDFAVYYCQCYGSTPPITFGPGTKVDIK
B9: C1206 (protein)
chain 1: EVQLVESGGGLVQPGGSLRLSCAASGLTVSSNYMNWVRQAPGKGLEWVSVIYSGGSTFYADSVKGRFMISRDNSKNTLYLQMNSLRAEDTAVYYCARESYGMDVWGQGTTVTVSS
chain 2: DIQLTQSPSFLSASVGDRVTITCRASQGISSYLAWYQQKPGKAPKLLIYAASTLQSGVPSRFSGSGSGTEFTLTISSLQPEDFATYYCQQLNSYPPRDTFGQGTKLEIK
B10: C1209 (protein)
chain 1: EVQLLESGGGLVQPGGSLRLSCVGSGFTFSTYAMRWVRQAPGKGLKWISEISATDDSTHYADSVKGRFIISRDNSKNTVYLQMNSLTAEDTAVYYCAKLASTSWTVYFYHAMDVWGQGTTVTVSS
chain 2: SYELTQPPSVSVAPGKTATITCGGDNIGIKSVHWYQQKPGQAPVLVVYDDRDRPSGIPERFSGSNSGNPATLTISRVEAGDEADYYCQLWESSSVVFGGGTKLTVL
B11: C2427 (protein)
chain 1: EVQLLESGGGLVQPGGSLRLSCAASGFSFSSYAMSWVRQAPGKGLEWVSGLSGNGVNTYYVDSVKGRFTISRDNSKNTLYLQMNSLRAEDTSVYYCAKVLHGGWFPFDAFDIWGQGTMVTVSS
chain 2: QSVLTQPPSVSAAAGQKVTISCSGSSSNIGNNYVSWYQQLPGTAPKLLIYENNRRPSGIPDRFSGSKSGTSATLGITGLQTGDEATYYCGTWESSLDVVVFGGGTKLTVL
B12: C1210 (protein)
chain 1: QVQLVQSGAEVKKPGSSVKVSCKASGGTFSNYGISWVRQAPGQGLEWMGRIIPMFGIANYAQKFQGRVTITADKSTSTVYMELASLRSEDTAVYYCARDQWESDYYDNSDYYYVDYWGQGTLVTVSS
chain 2: QSVLTQPPSVSGAPGQRVTISCTGSSSNIGAGYDVHWYQQLPGTAPKLLIYDNSNRPSGVPDRFSGSKSGTSASLAITGLQAEDEADYHCQSYDRSLSDVVFGGGTKLTVL
B13: C1212 (protein)
chain 1: QVQLVQSGAEVKKPGSSVKVSCKASGGTFSSYTISWVRQAPGQGLEWMGGIIPILGIADYAQKFQGRVTITADKSTSTAYMELSSLRSEDTAVYYCARGSFRDPAMWGPMPEYFQHWGQGTLVTVSS
chain 2: DIQMTQSPSSLSASVGDRVTITCRASQSVSSFLNWYQQKPGKAPKLLIYAASSLQSGVPSRFSGSGSGTDFTLTISSLQPEDFATYYCQQSYIIPGTFGQGTKLEIK
B14: C1215 (protein)
chain 1: QVQLVESGGGVVQPGGSLRLSCAASGFTFSSYGMHWVRQAPGKGLEWVAFILYDGSNKYYVDSVKGRFTISRDNSKNTLYLQMNSLRAEDTAVYYCVKDPVGGYCRGGNCYDFYAMDVWGQGTTVTVSS
chain 2: NFMLTHPHSVSESPGKTVTISCTRSSGSIASNYVQWYQQRPGSSPTTVIYEDNQRPSGVPDRFSGSIDSSSNSASLTISGLKTEDEADYYCQSSDSSTVVFGGGTKLTVL
B15: C1229 (protein)
chain 1: QVQLVESGGGVVQPGRSLRLSCAASGFTFSSYALHWVRQAPGKGLEWVALISYDGSNKHYADSVKGRFTISRDNSKNTLYLQMNSLRVEDTAVYYCARDYCGSTSCPYLFDYWGQGTLVTVSS
chain 2: SYELTQPPSVSVAPGETARITCGGNNIGSKSVHWYQQKPGQAPVLVVYDDSDRPSGIPERFSGSNSGNTATLTISRVEAGDEADYYCQVWDISIDHVVVFGGGTKLTVL
B16: C1238 (protein)
chain 1: QVQLQQWGAGLLKPSETLSLTCAVYGGSFSGYYWSWIRQPPGKGLEWIGEINHSGSTNYSPSLQSRVTISVDTSKNHFSLKLTSVTAADTAVYYCARLVREYSFGLDYWGQGTLVTVSS
chain 2: B13 chain 2 with S31H, K45N, T72S, I93T, G96N

Key:
[1] = target: SARS-CoV-2 Wuhan-Hu-1 spike pseudovirus; experiment: pseudovirus neutralization IC50; higher = weaker neutralization
Method: (§1)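 Single-round luciferase reporter pseudovirus mixed with antibody dilutions and put on 293T-ACE2 cells for 48 h; signal relative to no-antibody wells, four-parameter fit.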

[2] = target: SARS-CoV-2 Wuhan-Hu-1 spike pseudovirus; experiment: pseudovirus neutralization IC90; higher = weaker neutralization
Method: as §1

[3] = target: SARS-CoV-2 Wuhan-Hu-1 spike receptor-binding domain; experiment: ELISA binding EC50; higher = weaker binding; ELISA of recombinant human antibody on coated antigen, from 10 µg/ml in fourfold dilutions; four-parameter fit.

Row | Binder | pseudovirus neutralization IC50 [1] [µg/mL] | pseudovirus neutralization IC90 [2] [µg/mL] | ELISA binding EC50 [3] [µg/mL]
1 | B1 | > 1 | > 1 | 0.0038
2 | B2 | 0.015 | 0.103 | 0.00405
3 | B3 | > 1 | > 1 | 0.00236
4 | B4 | > 1 | > 1 | 0.00392
5 | B5 | 0.122 | > 1 | 0.00263
6 | B6 | > 1 | > 1 | 0.00244
7 | B7 | 0.477 | > 1 | 0.00192
8 | B8 | > 1 | > 1 | 0.00395
9 | B9 | 0.0125 | 0.0552 | 0.00249
10 | B10 | > 1 | > 1 | 0.0202
11 | B11 | > 1 | > 1 | 0.00208
12 | B12 | 0.141 | > 1 | 0.00283
13 | B13 | 0.00732 | 0.119 | 0.00292
14 | B14 | 0.0776 | 0.412 | 0.00239
15 | B15 | 0.697 | > 1 | 0.00946
16 | B16 | > 1 | > 1 | 0.0591
